{"source": "patent US20090291975A1", "about": "“DUAL OPIOID PAIN THERAPY” (priority 2008, published 2009)", "key": {"[1]": {"test_system": "patients with chronic moderate to severe, non-cancer pain", "assay": "Study 1: Phase II randomized double-blind crossover, pain relief (VAS), Q8001 vs morphine", "assay_type": "in vivo, human", "conditions": "at baseline (while receiving prior opioid therapy)"}, "[2]": {"test_system": "patients with chronic moderate to severe, non-cancer pain", "assay": "Study 1: opioid-related adverse events (nausea, vomiting, constipation, drowsiness)", "assay_type": "in vivo, human"}, "[3]": {"test_system": "patients with chronic moderate to severe, non-cancer pain", "assay": "Study 2: opioid-related adverse events (nausea, vomiting, constipation, drowsiness)", "assay_type": "in vivo, human"}, "[4]": {"test_system": "patients with chronic moderate to severe, non-cancer pain", "assay": "Study 2: Phase II randomized double-blind crossover, pain relief (VAS), Q8002 vs morphine", "conditions": "at baseline (while receiving prior opioid therapy)"}}}
{"smiles": "CN1CC[C@]23c4c5ccc(O)c4O[C@H]2[C@@H](O)C=C[C@H]3[C@H]1C5", "note": "[Morphine, morphine]", "values": [{"measurement": "PAIN SCORE (VAS) At BASELINE", "setting": "[1]", "result": 4.5}, {"measurement": "Constipation, No, rate", "setting": "[2]", "result": "(43%)"}, {"measurement": "Constipation, Yes, incidence rate", "setting": "[2]", "result": "(57%)"}, {"measurement": "Drowsiness, No, rate", "setting": "[2]", "result": "(29%)"}, {"measurement": "Drowsiness, Yes, incidence rate", "setting": "[2]", "result": "(71%)"}, {"measurement": "Nausea, No, rate", "setting": "[2]", "result": "(43%)"}, {"measurement": "Nausea, Yes, incidence rate", "setting": "[2]", "result": "(57%)"}, {"measurement": "Vomiting, No, rate", "setting": "[2]", "result": "(90%)"}, {"measurement": "Vomiting, Yes, incidence rate", "setting": "[2]", "result": "(10%)"}, {"measurement": "Constipation, Yes (number of patients)", "setting": "[2]; graded score of 1 or higher", "result": 12}, {"measurement": "Drowsiness, Yes (number of patients)", "setting": "[2]; graded score of 1 or higher", "result": 15}, {"measurement": "Nausea, Yes (number of patients)", "setting": "[2]; graded score of 1 or higher", "result": 12}, {"measurement": "Vomiting, Yes (number of patients)", "setting": "[2]; graded score of 1 or higher", "result": 2}, {"measurement": "Constipation, No (number of patients)", "setting": "[2]; score 0", "result": 9}, {"measurement": "Drowsiness, No (number of patients)", "setting": "[2]; score 0", "result": 6}, {"measurement": "Nausea, No (number of patients)", "setting": "[2]; score 0", "result": 9}, {"measurement": "Vomiting, No (number of patients)", "setting": "[2]; score 0", "result": 19}, {"measurement": "Constipation, No, rate", "setting": "[3]", "result": "(35%)"}, {"measurement": "Constipation, Yes, incidence rate", "setting": "[3]", "result": "(65%)"}, {"measurement": "Drowsiness, No, rate", "setting": "[3]", "result": "(57%)"}, {"measurement": "Drowsiness, Yes, incidence rate", "setting": "[3]", "result": "(43%)"}, {"measurement": "Nausea, No, rate", "setting": "[3]", "result": "(48%)"}, {"measurement": "Nausea, Yes, incidence rate", "setting": "[3]", "result": "(52%)"}, {"measurement": "Vomiting, No, rate", "setting": "[3]", "result": "(87%)"}, {"measurement": "Vomiting, Yes, incidence rate", "setting": "[3]", "result": "(13%)"}, {"measurement": "Constipation, Yes (number of patients)", "setting": "[3]; graded score of 1 or higher", "result": 15}, {"measurement": "Drowsiness, Yes (number of patients)", "setting": "[3]; graded score of 1 or higher", "result": 10}, {"measurement": "Vomiting, Yes (number of patients)", "setting": "[3]; graded score of 1 or higher", "result": 3}, {"measurement": "Constipation, No (number of patients)", "setting": "[3]; score 0", "result": 8}, {"measurement": "Drowsiness, No (number of patients)", "setting": "[3]; score 0", "result": 13}, {"measurement": "Nausea, No (number of patients)", "setting": "[3]; score 0", "result": 11}, {"measurement": "Vomiting, No (number of patients)", "setting": "[3]; score 0", "result": 20}, {"measurement": "PAIN SCORE (VAS) At BASELINE", "setting": "[4]", "result": 4.8}]}
